The source of these data is paper PMC4336329 (PLoS ONE, 2015).

SMILES strings stand for the structures. The campaign covered roughly 310,000 compounds. About 2,200 (0.71%) showed an effect of 50% or more. Effects have a minus sign here. Some of the results follow.

This experiment deals with human ether-à-go-go-related gene (hERG) potassium channel (human, UniProt Q12809). In words: primary screen, population patch clamp on CHO cells stably expressing hERG.
human ether-à-go-go-related gene (hERG) potassium channel, sequence (Q12809 whole entry, looked up): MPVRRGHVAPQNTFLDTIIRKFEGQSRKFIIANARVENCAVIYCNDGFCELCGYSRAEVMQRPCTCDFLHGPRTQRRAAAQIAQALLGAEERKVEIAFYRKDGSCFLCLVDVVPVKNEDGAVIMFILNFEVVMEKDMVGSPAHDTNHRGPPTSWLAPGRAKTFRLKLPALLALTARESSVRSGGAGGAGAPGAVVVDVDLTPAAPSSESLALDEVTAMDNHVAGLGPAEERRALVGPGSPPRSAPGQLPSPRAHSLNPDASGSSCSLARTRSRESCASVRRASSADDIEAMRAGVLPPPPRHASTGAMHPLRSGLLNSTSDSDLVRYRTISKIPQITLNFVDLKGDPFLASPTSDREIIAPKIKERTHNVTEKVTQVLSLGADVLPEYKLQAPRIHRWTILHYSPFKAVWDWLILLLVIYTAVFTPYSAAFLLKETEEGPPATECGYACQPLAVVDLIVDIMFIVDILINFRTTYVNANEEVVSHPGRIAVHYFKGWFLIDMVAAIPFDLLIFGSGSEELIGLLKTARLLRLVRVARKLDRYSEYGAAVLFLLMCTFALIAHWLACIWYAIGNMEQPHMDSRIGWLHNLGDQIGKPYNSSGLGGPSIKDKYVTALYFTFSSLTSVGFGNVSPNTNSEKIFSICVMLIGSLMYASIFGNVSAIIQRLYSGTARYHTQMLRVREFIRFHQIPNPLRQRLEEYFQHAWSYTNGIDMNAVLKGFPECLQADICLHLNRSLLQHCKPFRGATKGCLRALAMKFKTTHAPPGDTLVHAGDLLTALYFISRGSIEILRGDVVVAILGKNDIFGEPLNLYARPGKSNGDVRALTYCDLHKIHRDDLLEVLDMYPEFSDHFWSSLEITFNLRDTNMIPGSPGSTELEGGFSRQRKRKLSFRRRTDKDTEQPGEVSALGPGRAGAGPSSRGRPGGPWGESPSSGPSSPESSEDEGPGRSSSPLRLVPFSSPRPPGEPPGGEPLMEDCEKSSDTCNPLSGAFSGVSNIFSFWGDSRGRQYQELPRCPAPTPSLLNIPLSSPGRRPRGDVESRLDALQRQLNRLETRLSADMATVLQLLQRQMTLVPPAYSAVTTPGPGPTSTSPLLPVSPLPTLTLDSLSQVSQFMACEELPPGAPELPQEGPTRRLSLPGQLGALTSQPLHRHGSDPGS
As to `CCOC(=O)C1CCN(C(=O)CCNC(=O)c2ccccc2OC)CC1`, the “hERG current change (%, negative = inhibition) at 1uM” value turned out to be 12.6%. In the case of `CN(CC1CCN(CCc2cccc(C(F)(F)F)c2)CC1)C(=O)c1ccc(F)cc1`, the “hERG current change (%, negative = inhibition) at 1uM” value is given as -60%. Turning to `CC1(C)OC(=O)N(NCc2ccccc2)C1(C)O` (stereo not shown), the “hERG current change (%, negative = inhibition) at 1uM” value came to 12.1%. Next, `O=C(COC(=O)c1ccc(O)cc1O)NNC(=O)c1cccs1`: 11.9%; `COc1ccc(C2=CC(=O)C[C@H](c3ccc(Cl)cc3)C2)cn1`: 5.1%; `O=C(Nc1cccc(Cl)c1)C1=Cc2cc(Cl)ccc2OC1`: 5.28%. Then `CCOC(=O)c1cc(C)nc(S(C)(=O)=O)c1C#N`, with 11.8%; and `COc1ccccc1NC(=S)N(CCCN1CCOCC1)Cc1ccccn1`, with 2.97%. For the molecule `CCN(CC(=O)NCCc1ccc(Cl)cc1)Cc1nc2ccccc2c(=O)[nH]1`, the “hERG current change (%, negative = inhibition) at 1uM” value is listed as -15.7%. `O=C(Cc1ccc2cccnc2c1)c1ccc(O)cc1O`: the “hERG current change (%, negative = inhibition) at 1uM” value is 16.6%. With `O=C1/C(=C/c2ccc([N+](=O)[O-])cc2)Oc2cc(O)ccc21`, the “hERG current change (%, negative = inhibition) at 1uM” value is recorded as 5.48%. As to `O=C(O)CC(NC(=O)Cc1ccc([N+](=O)[O-])cc1)c1ccc2c(c1)OCO2` (stereo not shown), the “hERG current change (%, negative = inhibition) at 1uM” value came out at 7.63%. For the molecule `CCOc1ccc(OCc2ccc(C(=O)N(C)c3ccccc3)o2)cc1`, the “hERG current change (%, negative = inhibition) at 1uM” value was found to be 11.5%. Then `O=C(Nc1ccccc1Cl)c1cc(S(=O)(=O)N2CCOCC2)cs1`, with 0.216%; and `Nc1ccn(Cc2cccc(F)c2)n1`, with 14%; and `CCSc1nc(-c2ccccc2)c2cc(Cl)ccc2n1`, with 12.4%. For `Cn1c(=O)c2c(nc(CN3CCN(C(c4ccccc4)c4ccccc4)CC3)n2CC(N)=O)n(C)c1=O`, the “hERG current change (%, negative = inhibition) at 1uM” value is recorded as -1.66%. As for `O=C(c1ccc(CS(=O)(=O)c2cccc(C(F)(F)F)c2)o1)N1CCN(c2ccccn2)CC1`, the “hERG current change (%, negative = inhibition) at 1uM” value is listed as -15.1%.

Regarding `O=C1N/C(=N\c2ccccn2)SC1Cc1ccc(Cl)cc1` (stereo not shown), the “hERG current change (%, negative = inhibition) at 1uM” value is reported as 9.93%.

Take `O=C(COc1cc(Cl)ccc1Cl)Nc1nnc(CC(=O)N2CCOCC2)s1`: the “hERG current change (%, negative = inhibition) at 1uM” value came out at 7.03%. As for `CC(Oc1ccc2oc(-c3ccccc3)c(C(=O)O)c2c1)C(=O)O` (stereo not shown), the “hERG current change (%, negative = inhibition) at 1uM” value is 12.8%. Then `O=C(CN1C(=O)NC2(CCCC2)C1=O)Nc1cccc(Cl)c1Cl`, with 14.8%; and `O=C(O)CC(Cc1ccccc1)c1ccc2c(c1)OCO2` (stereo not shown), with 12.4%. For `CCC(C)N1CCN(S(=O)(=O)Cc2ccccc2)CC1` (stereo not shown), the “hERG current change (%, negative = inhibition) at 1uM” value stood at 12.9%. Take `Cc1csc(NC(=O)c2cccnc2)n1`: the “hERG current change (%, negative = inhibition) at 1uM” value is 19.3%.

Regarding `CCOC(=O)c1cc(C(O)(C(F)(F)F)C(F)(F)F)c(/N=C/N(C)C)o1`, the “hERG current change (%, negative = inhibition) at 1uM” value turned out to be 9.91%. Regarding `CCc1c(C)nc(N)n2c(SCC(=O)Nc3ccccc3OC)nnc12`, the “hERG current change (%, negative = inhibition) at 1uM” value is 11%. In the case of `COCCn1nnnc1C(c1cccc(C#N)c1)N1CCCCCC1.Cl` (stereo not shown), the “hERG current change (%, negative = inhibition) at 1uM” value is reported as -1.89%. Turning to `CC(C)NC(=O)C(Cc1ccccc1)N1C(=O)c2ccccc2C1=O` (stereo not shown), the “hERG current change (%, negative = inhibition) at 1uM” value stood at 4.68%. Consider `Nc1cc(=O)[nH]c(SCC(=O)N2CCC(Cc3ccccc3)CC2)n1`, for which the “hERG current change (%, negative = inhibition) at 1uM” value came to 9.62%. For the molecule `COc1ccc(-n2c(N)c(C(=O)Nc3c(C)n(C)n(-c4ccccc4)c3=O)c3nc4ccccc4nc32)cc1`, the “hERG current change (%, negative = inhibition) at 1uM” value is given as -13.9%. For the molecule `Cc1cc(NC(=O)CSc2nc3ccccc3n2CCC#N)no1`, the “hERG current change (%, negative = inhibition) at 1uM” value was 11.9%. Turning to `CCn1cc(C(=O)N[C@@H](C)C(=O)NCCO)c(=O)c2cc3c(cc21)OCO3`, the “hERG current change (%, negative = inhibition) at 1uM” value stood at 13.4%. For `CCn1c(SCc2ccccc2)nc2cc(OC)c(OC)cc2c1=O`, the “hERG current change (%, negative = inhibition) at 1uM” value is 9.49%. Take `CC(C)CNC(=O)c1ccccc1NC(=O)/C=C/c1cccc([N+](=O)[O-])c1`: the “hERG current change (%, negative = inhibition) at 1uM” value is 23.5%. For `CCCS(=O)(=O)N1CCCC(C(=O)N2CCC3(CC2)OCCO3)C1` (stereo not shown), the “hERG current change (%, negative = inhibition) at 1uM” value amounted to 13.3%.

As for `CCOc1ccccc1C(C(=O)NC1CCCC1)N(C(=O)c1csnn1)C1CC1` (stereo not shown), the “hERG current change (%, negative = inhibition) at 1uM” value was determined as 13.9%. For the molecule `Cc1c(NC(=S)Nc2ccccc2C(F)(F)F)cccc1[N+](=O)[O-]`, the “hERG current change (%, negative = inhibition) at 1uM” value is listed as 11.2%. Then `c1ccc(-c2ccc(SCc3cccnc3)nn2)nc1`, with 10.7%. Next, `CNC(=O)Cn1c(C)cc(=O)c2cccc(OC)c21`: 10.6%; `Cc1ccc(OCC(=O)NCCc2nc3ccccc3[nH]2)c(C)c1`: 2.02%; `CCc1ccccc1NC(=O)COc1ccc2c(c1)OCO2`: 10.6%. With `CN(c1ccc(C(=O)Nc2nccs2)cc1)S(=O)(=O)c1ccccc1`, the “hERG current change (%, negative = inhibition) at 1uM” value was found to be 0.38%.

For the molecule `COc1ccc(CCNC(=O)CSc2nnc(NC(C)=O)s2)cc1OC`, the “hERG current change (%, negative = inhibition) at 1uM” value is -2.18%.

Take `O=C(O)C1CC(=O)N(Cc2ccccc2)C1` (stereo not shown): the “hERG current change (%, negative = inhibition) at 1uM” value amounted to 17.6%. In the case of `CC(C)Cn1cc(C(=O)N2CCN(c3ccccn3)CC2)c2c3ccccc3n(C)c2c1=O`, the “hERG current change (%, negative = inhibition) at 1uM” value was determined as 0.523%.

On to `COCCC1CCCCN1C(=O)c1cc(COc2ccc(-n3cncn3)cc2)on1` (stereo not shown), for which the “hERG current change (%, negative = inhibition) at 1uM” value was 2.41%.

`Cc1cc(NC(=O)/C=C/c2ccccc2)c(C(C)C)cc1O`: the “hERG current change (%, negative = inhibition) at 1uM” value was found to be 10.9%. Take `O=C(CNC(=O)c1cccs1)N/N=C/c1cccc(Cl)c1`: the “hERG current change (%, negative = inhibition) at 1uM” value stood at 1.43%. Next, `Cc1ccc(C)c(NC(=O)CCn2cnnn2)c1`: 13.3%; `CCOc1ccc(N(C(=O)c2snc(C(N)=O)c2N)C(C(=O)NC2CCCC2)C(C)C)cc1` (stereo not shown): 14.7%; `O=C(NCCSc1ccccc1)c1ccccc1Cl`: 10.7%. For the molecule `CC1(C)N=C(N)N=C(N)N1c1cccc(C(=O)O)c1.Cl`, the “hERG current change (%, negative = inhibition) at 1uM” value worked out at 4.86%. Consider `CC1CCc2c(sc3ncnc(SCC(=O)c4ccccc4)c23)C1` (stereo not shown), for which the “hERG current change (%, negative = inhibition) at 1uM” value is on record as 18.2%. Next, `COc1cc(/C=N\NC(=O)c2ccc(-c3ccccc3)cc2)cc(Br)c1O`: 12.8%. Then `Cc1ccc(NC(=O)Cn2nnc3ccccc32)c(C)c1`, with 10.3%; and `CCCS(=O)(=O)NCCc1csc(-c2ccc(OC)c(OC)c2)n1`, with 13%. For the molecule `CC(CNC(=S)Nc1cc(F)cc(F)c1)CSc1ccc(Cl)cc1` (stereo not shown), the “hERG current change (%, negative = inhibition) at 1uM” value worked out at 7.47%. Take `CCCCOC(=O)c1ccc(NC(=O)C(=O)NCc2cccnc2)cc1`: the “hERG current change (%, negative = inhibition) at 1uM” value is recorded as 14.1%.

`COc1cccc(NC(=O)COC(=O)/C=C/c2ccco2)c1`: the “hERG current change (%, negative = inhibition) at 1uM” value came out at 8.74%. In the case of `COc1cccc(/C=N/NC(=O)c2cccc(N3CCCC3=O)c2)c1`, the “hERG current change (%, negative = inhibition) at 1uM” value was found to be 3.02%. Consider `C=Cn1cc[n+](CC(=O)c2ccc(Br)cc2)c1.[Br-]`, for which the “hERG current change (%, negative = inhibition) at 1uM” value is listed as 15.1%. With `CCOC(=O)[C@@H]1[C@H]2COc3ccc(Br)cc3[C@@H]2N2C(=O)N(c3cccc(C)c3)C(=O)[C@]12C`, the “hERG current change (%, negative = inhibition) at 1uM” value stood at 8.78%. Then `CCc1ccc(OCCNc2cc(N3CCNC(C)C3)ccc2[N+](=O)[O-])cc1` (stereo not shown), with 13.6%. Regarding `COCCCNC(=O)CSc1ccsc1[N+](=O)[O-]`, the “hERG current change (%, negative = inhibition) at 1uM” value turned out to be 4.79%. For the molecule `C=CCOC(=O)C1=C[C@@H](c2ccc(C(F)(F)F)cc2)C[C@@H](OCc2ccc(CO)cc2)O1`, the “hERG current change (%, negative = inhibition) at 1uM” value was 18.3%.

For `CCc1cc(=O)[nH]c(SCC(=O)N2CCC(Cc3ccccc3)CC2)n1`, the “hERG current change (%, negative = inhibition) at 1uM” value is recorded as -3.78%. Turning to `O=C(Nc1ccc2[nH]c(=S)sc2c1)Nc1ccccc1F`, the “hERG current change (%, negative = inhibition) at 1uM” value is recorded as 11.1%.

On to `Cc1ccc(C(=O)Nc2cccnc2)cc1S(=O)(=O)N1CCOCC1`, for which the “hERG current change (%, negative = inhibition) at 1uM” value stood at 11.3%. `CCC[n+]1cn(/C(C(=S)Nc2cccc(Cl)c2C)=C(/[O-])c2ccc(OC)c(OC)c2)c2ccccc21`: the “hERG current change (%, negative = inhibition) at 1uM” value amounted to 2.8%. Take `CCN(CC)S(=O)(=O)c1cccc(NC(=O)CN(C)Cc2cccc(OC)c2)c1.O=C(O)C(=O)O`: the “hERG current change (%, negative = inhibition) at 1uM” value is reported as -6.88%. With `Cc1cc(C)c(C(=O)O)c(CC(C)(C)C(=O)O)c1`, the “hERG current change (%, negative = inhibition) at 1uM” value is listed as 17.2%. As for `Cc1cc(C)nc(Sc2ccc(/C=C(\C#N)C(=O)Nc3ccccc3)o2)n1`, the “hERG current change (%, negative = inhibition) at 1uM” value is on record as 13.4%. For `O=C(NCCC1=CCCCC1)c1c(O)nc2sccn2c1=O`, the “hERG current change (%, negative = inhibition) at 1uM” value turned out to be 10.7%. Take `CN1CCC(=NNC(=O)CN(c2cccc(Cl)c2)S(C)(=O)=O)CC1`: the “hERG current change (%, negative = inhibition) at 1uM” value stood at 16.9%.

Regarding `CN(C)c1ccc(C(=O)Nc2ccc(S(=O)(=O)NC3=NCCCCC3)cc2)cc1`, the “hERG current change (%, negative = inhibition) at 1uM” value came to 1.85%. Next, `Cc1ccc(N2CC(C(=O)Nc3c(C)n(C)n(-c4ccccc4)c3=O)CC2=O)cc1` (stereo not shown): 10.6%; `O=C(C1COc2ccccc2O1)N1CCN(Cc2ccc(Br)cc2F)CC1` (stereo not shown): 2.23%. Then `O=C1NNC(=O)C2C3C=CC(C4CC34)C12` (stereo not shown), with -4.48%. `COc1ccc(-n2c(Cn3c(=O)sc4ccccc43)nnc2SC)cc1`: the “hERG current change (%, negative = inhibition) at 1uM” value was found to be 3.15%. For `COc1ccc(NS(=O)(=O)c2ccc(O)c(NC(=O)c3cc4c(C)nn(-c5ccc(F)cc5)c4s3)c2)cc1`, the “hERG current change (%, negative = inhibition) at 1uM” value was 12.6%.

For the molecule `CCC/C(O)=C1\C(=O)CC(C)(C)CC1=NCCO`, the “hERG current change (%, negative = inhibition) at 1uM” value is reported as 10.8%. On to `Cc1cc(N2CCOCC2)nc2ccc(NC(=S)N3CCCCC3C)cc12` (stereo not shown), for which the “hERG current change (%, negative = inhibition) at 1uM” value is recorded as -3.58%. On to `CC(=O)c1ccccc1Oc1ncnc(N)c1[N+](=O)[O-]`, for which the “hERG current change (%, negative = inhibition) at 1uM” value came out at 29.5%.

For `CCOc1ccc(CCNC(=O)Cn2nc(C)n3cccc3c2=O)cc1OCC`, the “hERG current change (%, negative = inhibition) at 1uM” value turned out to be 29.2%. `COc1nccnc1NS(=O)(=O)c1ccc(NS(=O)(=O)c2ccc(NC(C)=O)cc2)cc1`: the “hERG current change (%, negative = inhibition) at 1uM” value amounted to 3.87%. Consider `CCOC(=O)Cc1csc(N/C(=N/S(=O)(=O)c2cc(Br)ccc2OCC)c2ccccc2)n1`, for which the “hERG current change (%, negative = inhibition) at 1uM” value turned out to be 12.7%.

For `COc1ccc(NC(NC(=O)c2cccnc2)C(Cl)(Cl)Cl)cc1` (stereo not shown), the “hERG current change (%, negative = inhibition) at 1uM” value is reported as 7.2%.
